For experiment [1], the target named is T1, recombinant extracellular domain of EGFR (UniProt P00533 part only, limits assumed).
T1 construct: extracellular domain
Description: competition ELISA, ErbB3-coated plate, B2B3-1 at a half-maximal binding concentration, soluble competitor titrated. On the technique in general: In an ELISA, binding on a coated surface is turned into a signal by an enzyme label.

Experiment [2] has as its target T2, recombinant extracellular domain of ErbB4 (UniProt Q15303 26-651, limits assumed).
T2 construct: extracellular domain
T2 sequence (looked up): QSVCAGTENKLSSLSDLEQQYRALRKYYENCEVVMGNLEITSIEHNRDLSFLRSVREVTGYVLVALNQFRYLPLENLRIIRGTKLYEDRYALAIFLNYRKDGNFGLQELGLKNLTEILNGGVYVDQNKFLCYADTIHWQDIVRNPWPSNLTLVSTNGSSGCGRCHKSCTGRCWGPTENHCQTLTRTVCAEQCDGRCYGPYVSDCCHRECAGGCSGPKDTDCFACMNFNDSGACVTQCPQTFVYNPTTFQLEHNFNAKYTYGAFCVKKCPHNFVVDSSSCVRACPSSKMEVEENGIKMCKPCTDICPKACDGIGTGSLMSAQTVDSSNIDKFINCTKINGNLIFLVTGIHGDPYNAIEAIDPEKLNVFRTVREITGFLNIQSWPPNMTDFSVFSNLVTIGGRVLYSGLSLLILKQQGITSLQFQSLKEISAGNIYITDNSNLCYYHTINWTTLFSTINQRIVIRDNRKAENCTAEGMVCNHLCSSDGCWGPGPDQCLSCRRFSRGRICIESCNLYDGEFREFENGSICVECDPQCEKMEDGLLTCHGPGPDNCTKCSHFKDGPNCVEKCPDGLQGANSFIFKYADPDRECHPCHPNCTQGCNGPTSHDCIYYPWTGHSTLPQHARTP
The description is as above.

B1: B2B3-1 (bispecific antibody)
chain: QVQLQESGGGLVKPGGSLRLSCAASGFTFSSYWMSWVRQAPGKGLEWVANINRDGSASYYVDSVKGRFTISRDDAKNSLYLQMNSLRAEDTAVYYCARDRGVGYFDLWGRGTLVTVSSASTGGGGSGGGGSGGGGSQSALTQPASVSGSPGQSITISCTGTSSDVGGYNFVSWYQQHPGKAPKLMIYDVSDRPSGVSDRFSGSKSGNTASLIISGLQADDEADYYCSSYGSSSTHVIFGGGTKVTVLGAAS[about 600 residues omitted here]AAALQVQLVQSGAEVKKPGESLKISCKGSGYSFTSYWIAWVRQMPGKGLEYMGLIYPGDSDTKYSPSFQGQVTISVDKSVSTAYLQWSSLKPSDSAVYFCARHDVGYCTDRTCAKWPEWLGVWGQGTLVTVSSGGGGSSGGGSGGGGSQSVLTQPPSVSAAPGQKVTISCSGSSSNIGNNYVSWYQQLPGTAPKLLIYDHTNRPAGVPDRFSGSKSGTSASLAISGFRSEDEADYYCASWDYTLSGWVFGGGTKLTVLG
notes: Single-chain bispecific scFv-HSA-scFv fusion expressed in CHO-K1 cells; also called H3-mHSA-B1D2; H3-HSA-B1D2
Turning to B1, the binding result in experiment [1] and in experiment [2] was “no binding (tested: about 4000 ng/ml)” throughout.

The record behind these values is patent US20150191545A1 (MERRIMACK PHARMACEUTICALS, published 2015).
